Source: patent US10143748B2, “B-cell reduction using CD37-specific and CD20-specific binding molecules” (Emergent Product Development Seattle, LLC, priority 2005, dated 2018)

T1: CD37 on Ramos cells (Homo sapiens, UniProt P11049)
T1 construct: Ramos cells expressing the CD20 and CD37 target antigens; endogenous in cells; host or cells: Ramos B-cell lymphoma line
T1 sequence (P11049 1-281): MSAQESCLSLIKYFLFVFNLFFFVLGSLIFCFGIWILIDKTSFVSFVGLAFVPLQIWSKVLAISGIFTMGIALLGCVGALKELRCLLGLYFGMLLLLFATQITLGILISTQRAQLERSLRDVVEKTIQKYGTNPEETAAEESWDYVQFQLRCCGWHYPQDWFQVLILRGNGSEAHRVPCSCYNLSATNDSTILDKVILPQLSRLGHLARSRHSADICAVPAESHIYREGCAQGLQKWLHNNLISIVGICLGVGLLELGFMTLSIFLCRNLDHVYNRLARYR


These molecules were tested against T1, CD37 on Ramos cells (assay: binding of humanized TRU-016 constructs (COS-7 conditioned media) to Ramos). Details: 3-day COS-7 conditioned media.
Description: To make humanized TRU-016 constructs of the invention, the mouse framework regions of TRU-016 were aligned to human VH1 and VH5 framework residues for the heavy chain and VK1 and VK3 for the light chain. Best matches were analyzed for framework compatibility with the CDRs of the mouse variable regions. Although there were several equally compatible combinations to chose from, we had previous success using the VK3 (C01668), VH5-51(Z12373) combination, so the humanized anti-CD37 SMIPs were designed using these human frameworks joined by a 15aa Gly4Ser ((g4s)3) scFv linker. The VK3 construct was constructed with JK1 as a preferred FR4 match and the VH5 was constructed with JH2 coding for FR4, as with previously-described constructs. SMIPs were constructed de novo using overlapping oligonucleotide PCR. Full-length products were cloned into the SMIP expression vector in frame with the human IgG1 hinge, CH2, and CH3. These clones were sequence verified, transfected into COS-7 cells and 3-day conditioned media tested for binding to the 8-cell lymphoma line, Ramos. In order to increase humanization, changes were incorporated into CDR1 of the light chain at positions L25, L27 and L28 and were well tolerated, showing equal binding activity with the original humanized molecule 019001. Further DNA constructs were made in a similar fashion to alter the CDR3 of the VH region by incorporating germline amino acids, H100-H102, encoded by various human JH regions. Constructs were examined for expression level and degree of binding to CD37 on Ramos cells.

binding to CD37 on Ramos B cells | Molecule
high CD37-specific binding | 019001: humanized TRU-016 construct; Vk3: VH5-51; AA SEQ ID NO: 6 (protein, Humanized TRU-016) MEAPAQLLFLLLLWLPDTTGEIVLTQSPATLSLSPGERATLSCRTSENVYSYLAWYQQKPGQAPRLLIYFAKTLAEGIPARFSGSGSGTDFTLTISSLEPEDFAVYYCQHHSDNPWTFGQGTKVEIKGGGGSGGGGSGGGGTGEVQLVQSGAEVKKPGESLKISCKGSGYSFTGYNMNWVRQMPGKGLEWMGNIDPYYGGTTYNRKFKGQVTISADKSISTAYLQWSSLKASDTAMYYCARSVGPMDYWGRGTLVTVSSDQ[human IgG1 Fc with changes not shown]
high CD37-specific binding | 019044: humanized TRU-016 construct; 019006 - CDR-H3 JH5a; AA SEQ ID NO: 52 (protein, Humanized TRU-016) MEAPAQLLFLLLLWLPDTTGEIVLTQSPATLSLSPGERATLSCRASENVYSYLAWYQQKPGQAPRLLIYFAKTLAEGIPARFSGSGSGTDFTLTISSLEPEDFAVYYCQHHSDNPWTFGQGTKVEIKGGGGSGGGGSGGGGTGEVQLVQSGAEVKKPGESLKISCKGSGYSFTGYNMNWVRQMPGKGLEWMGNIDPYYGGTTYNRKFKGQVTISADKSISTAYLQWSSLKASDTAMYYCARSVGPFDSWGQGTLVTVSSDQ[human IgG1 Fc with changes not shown]
high CD37-specific binding | 019041: humanized TRU-016 construct; 019006 - CDR-H3 JH4; AA SEQ ID NO: 48 (protein, Humanized TRU-016) MEAPAQLLFLLLLWLPDTTGEIVLTQSPATLSLSPGERATLSCRASENVYSYLAWYQQKPGQAPRLLIYFAKTLAEGIPARFSGSGSGTDFTLTISSLEPEDFAVYYCQHHSDNPWTFGQGTKVEIKGGGGSGGGGSGGGGTGEVQLVQSGAEVKKPGESLKISCKGSGYSFTGYNMNWVRQMPGKGLEWMGNIDPYYGGTTYNRKFKGQVTISADKSISTAYLQWSSLKASDTAMYYCARSVGPFDYWGQGTLVTVSSDQ[human IgG1 Fc with changes not shown]
